Experimental findings from the RNAGym collection of RNA variant scans (doi:10.1073/pnas.2313332121) are described below.

First the molecules themselves.
B1: TPR 5TU (parent)
chain: GGAUCUUCUCGAUCUAACAAAAAAGACAAAUCUGCCACAAAGCUUGAGAGCAUCUUCGGAUGCAGAGGCGGCAGCCUUCGGUGGCGCGAUAGCGCCAACGUUCUCAACUAUGACACGCAAAACGCGUGCUCCGUUGAAUGGAGUUUAUCAUG

Variants at the background level are over-represented here.

The series covers variants of B1. As to the kind of experiment: polymerase ribozyme fitness, log enrichment relative to wild type (log ratio); higher = more active; in vitro selection for triplet polymerase activity. In a few lines:
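Genotype fitness is the logarithm of its enrichment divided by wild-type enrichment, using inverse-variance-weighted averages of replicates. That logarithm is base 2. Enrichment was measured by Illumina sequencing of input and output libraries from one triplicate in vitro selection round, with frozen incubation at −7 °C, on PCR-built, transcribed mutant libraries of each subunit of a heterodimeric triplet polymerase ribozyme, retaining genotypes with ≥10 input reads and ≥1 read per output.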
On to A3G A30U U61A G70C C93A, for which the “polymerase ribozyme fitness (log ratio)” value was at most -4.2.
As to A3G A22C U45C A66C G67C C93U A113U, the “polymerase ribozyme fitness (log ratio)” value is at most -4.2.
Regarding A3U C76A C87U A113C U130A, the “polymerase ribozyme fitness (log ratio)” value was at most -4.2.
For A3C U9A G11A C35G C75A G117A U145C the value was at most -4.2.
For A3U C43G, the “polymerase ribozyme fitness (log ratio)” value is at most -4.2.
As for A3U A47C C69A G74A U77C A89U C96G C108G, the figure is at most -4.2.
For A3C A49C C96A the value was at most -4.2.
Turning to A3G C35A C43U G48C C51U U61G U102C, the “polymerase ribozyme fitness (log ratio)” value was at most -4.2.
For A3U G34A G86A C93G G141U the value was at most -4.2.
A3G G11A C32U C85G C87A G124U: the “polymerase ribozyme fitness (log ratio)” value is at most -4.2.
Turning to A3U C8G A16C A37C U45A C57A C87U A121G U139A U145C G152A, the “polymerase ribozyme fitness (log ratio)” value is at most -4.2.
As for A3U A142C, the figure is -1.59.
With A3U A29U A41C U45A A52U A91U C118G G143A, the “polymerase ribozyme fitness (log ratio)” value was at most -4.2.
Consider A3U C10U A39U U55A C57U G59C C93U C149A, for which the “polymerase ribozyme fitness (log ratio)” value is at most -4.2.
In the case of A3G A40C A49C C57G G74C C87G A89G U104G, the “polymerase ribozyme fitness (log ratio)” value was at most -4.2.
A3G G94A: the “polymerase ribozyme fitness (log ratio)” value is -1.67.
On to A3G C85G, for which the “polymerase ribozyme fitness (log ratio)” value is -3.16.
A3U C5G A19U C36U G83A: the “polymerase ribozyme fitness (log ratio)” value is -3.1.
As to A3U A47C C93U C118U, the “polymerase ribozyme fitness (log ratio)” value is -2.05.
Consider A3G U33G G58A G67U G94A A110U C125A U135C, for which the “polymerase ribozyme fitness (log ratio)” value is at most -4.2.
For A3C C85U C96U the value was -0.556; for A3U C57A G86A U101G U102G C118U A150U, at most -4.2; for A3C U7G C14U A52G, -3.28.
For A3U A23U C75G C85U U101C, the “polymerase ribozyme fitness (log ratio)” value was at most -4.2.
For A3C C5A A52C G65U C99G G133C the value was at most -4.2; for A3G A60C C93U U145G, -2.53; for A3U A49G C105U C108G, at most -4.2.
For A3G C79U G88A C96A G126A G140U the value was at most -4.2.
Regarding A3U A47C A52C C85U C132U, the “polymerase ribozyme fitness (log ratio)” value is at most -4.2.
A3C G11A A19C C54U A122U U135A G143A: the “polymerase ribozyme fitness (log ratio)” value was -3.73.
As for A3G U7C U13G G65U A66C A89U C95A C125G, the figure is at most -4.2; as for A3G G42C A47U C79A A107G C114G A121U C125G C129A, at most -4.2.
In the case of A3U C27U G59U U77A G92U A110G C116G, the “polymerase ribozyme fitness (log ratio)” value is at most -4.2.
For A3U A21G U56C A64C C93A C96U C99A the value was at most -4.2; for A3U A29G A49C G92A G124U G140A, at most -4.2.
For A3G C27U G50A C51U C85A G140U the value was at most -4.2; for A3G A17C G80A G88U C96U U148A, at most -4.2; for A3U C57A G58C G59C G86A C114U A120G U127A A147U, at most -4.2.
Regarding A3G C5U C32A G42U G100A C103G, the “polymerase ribozyme fitness (log ratio)” value was at most -4.2.
Consider A3U A17U U55G G84A C96A G133U G152C, for which the “polymerase ribozyme fitness (log ratio)” value is at most -4.2.
Consider A3U A91G G100U U101G C132G U139C, for which the “polymerase ribozyme fitness (log ratio)” value was at most -4.2.
As to A3G C8U C87G C114G A137G, the “polymerase ribozyme fitness (log ratio)” value is at most -4.2.
A3U C27U G46C G68U A89C G92A C116A: the “polymerase ribozyme fitness (log ratio)” value is at most -4.2.
For A3C C8A U55A C96A A120U C125A U135G A138U C149U A150C the value was at most -4.2; for A3U C93U, -1.81; for A3U C93G, -2.5.
For A3C U15A A19U C75U C87U, the “polymerase ribozyme fitness (log ratio)” value was -1.71.
For the variant A3G C10A G11C A23U A49C A147U, the “polymerase ribozyme fitness (log ratio)” value is at most -4.2.
For A3C C5A A21C C27U C95U C99A U135A G143A the value was at most -4.2; for A3C U31G C51U A60C A122C G140A, at most -4.2; for A3U A16U C54U U55A C85U A98C C99U C129G G152U, at most -4.2.
As for A3G C38U G83C C132A, the “polymerase ribozyme fitness (log ratio)” value is at most -4.2.
In the case of A3U C14G A73G G88C A91G C93A C96U, the “polymerase ribozyme fitness (log ratio)” value was at most -4.2.
Consider A3G G34C G83U G88A C99G A121U G140U, for which the “polymerase ribozyme fitness (log ratio)” value was at most -4.2.
For the variant A3U C75U G92C A97U U101G A142G, the “polymerase ribozyme fitness (log ratio)” value was at most -4.2.
Consider A3G U6A A24U C43A C93U C125U G143A, for which the “polymerase ribozyme fitness (log ratio)” value was at most -4.2.
Turning to A3G C35A A37U G48U U78A A110U C116A A120C G133C A137U, the “polymerase ribozyme fitness (log ratio)” value was at most -4.2.
Turning to A3U G84U, the “polymerase ribozyme fitness (log ratio)” value was -2.4.
Regarding A3U C36A C54A C87U, the “polymerase ribozyme fitness (log ratio)” value was at most -4.2.
Take A3U A122U G133U: the “polymerase ribozyme fitness (log ratio)” value was at most -4.2.
As for A3G A17C G143C, the figure is -2.6.
As to A3C G34A C57A C76A G94U G133U, the “polymerase ribozyme fitness (log ratio)” value is at most -4.2.
Turning to A3G C87U, the “polymerase ribozyme fitness (log ratio)” value is -0.743.
Turning to A3G G11A C32U G84A G117A U151A, the “polymerase ribozyme fitness (log ratio)” value was at most -4.2.
For A3U G11C U44A G58C G62A G68A G94C the value was at most -4.2; for A3C C5U C75A G86C C87U A98G C123U U145A, at most -4.2; for A3C C8U C18U A49G C87A, at most -4.2.
For the variant A3G U53C A60C G62C A91G U104C C118A A120U U134G, the “polymerase ribozyme fitness (log ratio)” value was at most -4.2.
As for A3U G25U C63U G67A G83C A150G, the figure is at most -4.2.
As for A3C C8G C93G A97U U148G, the figure is at most -4.2.
Regarding A3G C36U U45A G46C A47G U55A U61A U102A U111G, the “polymerase ribozyme fitness (log ratio)” value was at most -4.2.
For A3C G86A C125U the value was -2.79.
Consider A3G U13G A21U A40U C69A C79G G80A G83U C85U G86U G136C, for which the “polymerase ribozyme fitness (log ratio)” value is at most -4.2.
A3C U13G A23U C87U A91U C96U: the “polymerase ribozyme fitness (log ratio)” value is at most -4.2.
A3U C18U G88A C93G U139G A147C: the “polymerase ribozyme fitness (log ratio)” value was at most -4.2.
In the case of A3U C96A, the “polymerase ribozyme fitness (log ratio)” value is -0.199.
As for A3U G88A A89C A106U A107G U146G, the “polymerase ribozyme fitness (log ratio)” value is at most -4.2.
As for A3U A29C C43G C54G A73G C85G U90C G92U C99U A107G C116U U148C, the figure is at most -4.2.
A3U A20U G50C: the “polymerase ribozyme fitness (log ratio)” value is at most -4.2.
Consider A3U C14G G50C C85U G88A, for which the “polymerase ribozyme fitness (log ratio)” value was at most -4.2.
Take A3G A20C A41U A47C U77G U139A A150U: the “polymerase ribozyme fitness (log ratio)” value is at most -4.2.
On to A3G C18U G34U C95U A115C, for which the “polymerase ribozyme fitness (log ratio)” value was -4.09.
In the case of A3U U4C A52C G67A G83U A122U A137U U148A, the “polymerase ribozyme fitness (log ratio)” value was at most -4.2.
For the variant A3C U31G A52C U56A U61G A91C C108G A113U, the “polymerase ribozyme fitness (log ratio)” value was at most -4.2.
